The text below walks through data of paper PMC12820563.

The list shows a part of the results. The list includes weakly bound sequences.

In this assay the target is T1, MBP-FoxP3dN (UniProt Q99JB6).
T1 sequence: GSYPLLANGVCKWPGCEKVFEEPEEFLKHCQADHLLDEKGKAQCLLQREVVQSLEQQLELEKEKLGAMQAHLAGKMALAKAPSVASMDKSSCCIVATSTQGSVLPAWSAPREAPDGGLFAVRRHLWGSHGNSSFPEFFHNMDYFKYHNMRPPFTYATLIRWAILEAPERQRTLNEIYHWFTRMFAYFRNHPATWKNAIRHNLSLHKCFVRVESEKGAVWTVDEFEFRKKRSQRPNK
The experiment in a line: PD-seq (MBP pull-down with sequencing). The settings on record: 20 mM Tris-HCl pH 7.5, 100 mM NaCl, 1.5 mM MgCl2, 0.4 uM protein, 0.1 uM dsDNA library, 30 min, room temperature, amylose pull-down; high values mean tight binding; double strand, one strand shown.
As for “GATGATTGTTCTCCCAGCTGATGAATTGCGACTATCGAGTAAACAAATTTTCCTAATCTTTCTGTTCAAGCGCCATCTAC”, the binding signal (RPM ratio (pull-down/input)) was found to be 1.49.
Take “GATGATTGTTCTCCCAGCTGATGAATTGTCCCACTCGAGTAAACAAATTTTCCTAATCTTTCTGTTCAAGCGCCATCTAC”: the binding signal (RPM ratio (pull-down/input)) came to 0.402.
For “GATGATTGTTCTCCCAGCTGATGAATTCCTTATCTCGAGTAAACAAATTTTCCTAATCTTTCTGTTCAAGCGCCATCTAC”, the binding signal (RPM ratio (pull-down/input)) was determined as 0.277.
In the case of “GATGATTGTTCTCCCAGCTGATGAATTTAACCGCTCGAGTAAACAAATTTTCCTAATCTTTCTGTTCAAGCGCCATCTAC”, the binding signal (RPM ratio (pull-down/input)) was 0.298.
In the case of “GATGATTGTTCTCCCAGCTGATGAATTGGTAAGGTCGAGTAAACAAATTTTCCTAATCTTTCTGTTCAAGCGCCATCTAC”, the binding signal (RPM ratio (pull-down/input)) was 0.342.
Under “GATGATTGTTCTCCCAGCTGATGAATTTAGTTCTTCGAGTAAACAAATTTTCCTAATCTTTCTGTTCAAGCGCCATCTAC” stands 1.07.
Under “GATGATTGTTCTCCCAGCTGATGAATTGCCACGCTCGAGTAAACAAATTTTCCTAATCTTTCTGTTCAAGCGCCATCTAC” stands 0.867; under “GATGATTGTTCTCCCAGCTGATGAATTGTCAAGATCGAGTAAACAAATTTTCCTAATCTTTCTGTTCAAGCGCCATCTAC”, 0.243.
The result for “GATGATTGTTCTCCCAGCTGATGAATTCCCCTCATCGAGTAAACAAATTTTCCTAATCTTTCTGTTCAAGCGCCATCTAC” reads 0.34; that for “GATGATTGTTCTCCCAGCTGATGAATTAGTGGACTCGAGTAAACAAATTTTCCTAATCTTTCTGTTCAAGCGCCATCTAC”, 1.19; that for “GATGATTGTTCTCCCAGCTGATGAATTCACGAACTCGAGTAAACAAATTTTCCTAATCTTTCTGTTCAAGCGCCATCTAC”, 0.244.
For the sequence “GATGATTGTTCTCCCAGCTGATGAATTGAAATCATCGAGTAAACAAATTTTCCTAATCTTTCTGTTCAAGCGCCATCTAC”, the binding signal (RPM ratio (pull-down/input)) is 0.494.
The result for “GATGATTGTTCTCCCAGCTGATGAATTTTAACGTTCGAGTAAACAAATTTTCCTAATCTTTCTGTTCAAGCGCCATCTAC” reads 0.511; that for “GATGATTGTTCTCCCAGCTGATGAATTTAGCTAATCGAGTAAACAAATTTTCCTAATCTTTCTGTTCAAGCGCCATCTAC”, 0.352; that for “GATGATTGTTCTCCCAGCTGATGAATTTGTCCGTTCGAGTAAACAAATTTTCCTAATCTTTCTGTTCAAGCGCCATCTAC”, 1.78.
The result for “GATGATTGTTCTCCCAGCTGATGAATTGGTGGTGTCGAGTAAACAAATTTTCCTAATCTTTCTGTTCAAGCGCCATCTAC” reads 1.87.
The result for “GATGATTGTTCTCCCAGCTGATGAATTATAACATTCGAGTAAACAAATTTTCCTAATCTTTCTGTTCAAGCGCCATCTAC” reads 0.994; that for “GATGATTGTTCTCCCAGCTGATGAATTGAAACGCTCGAGTAAACAAATTTTCCTAATCTTTCTGTTCAAGCGCCATCTAC”, 0.309; that for “GATGATTGTTCTCCCAGCTGATGAATTAAAGTCTTCGAGTAAACAAATTTTCCTAATCTTTCTGTTCAAGCGCCATCTAC”, 0.349.
On to “GATGATTGTTCTCCCAGCTGATGAATTTCGAGAGTCGAGTAAACAAATTTTCCTAATCTTTCTGTTCAAGCGCCATCTAC”, for which the binding signal (RPM ratio (pull-down/input)) is 0.264.
Under “GATGATTGTTCTCCCAGCTGATGAATTGAGCGGTTCGAGTAAACAAATTTTCCTAATCTTTCTGTTCAAGCGCCATCTAC” stands 0.529.
The result for “GATGATTGTTCTCCCAGCTGATGAATTTTCAATATCGAGTAAACAAATTTTCCTAATCTTTCTGTTCAAGCGCCATCTAC” reads 0.409.
“GATGATTGTTCTCCCAGCTGATGAATTTTACGGGTCGAGTAAACAAATTTTCCTAATCTTTCTGTTCAAGCGCCATCTAC”: the binding signal (RPM ratio (pull-down/input)) was 0.195.
As for “GATGATTGTTCTCCCAGCTGATGAATTGTGGCGATCGAGTAAACAAATTTTCCTAATCTTTCTGTTCAAGCGCCATCTAC”, the binding signal (RPM ratio (pull-down/input)) was 1.74.
The result for “GATGATTGTTCTCCCAGCTGATGAATTGGTCACCTCGAGTAAACAAATTTTCCTAATCTTTCTGTTCAAGCGCCATCTAC” reads 0.631; that for “GATGATTGTTCTCCCAGCTGATGAATTCAGGTAGTCGAGTAAACAAATTTTCCTAATCTTTCTGTTCAAGCGCCATCTAC”, 0.414.
The result for “GATGATTGTTCTCCCAGCTGATGAATTAGAGTGGTCGAGTAAACAAATTTTCCTAATCTTTCTGTTCAAGCGCCATCTAC” reads 0.553.
With “GATGATTGTTCTCCCAGCTGATGAATTCCCGCAATCGAGTAAACAAATTTTCCTAATCTTTCTGTTCAAGCGCCATCTAC”, the binding signal (RPM ratio (pull-down/input)) worked out at 2.48.
Under “GATGATTGTTCTCCCAGCTGATGAATTCCAGGGGTCGAGTAAACAAATTTTCCTAATCTTTCTGTTCAAGCGCCATCTAC” stands 0.322.
As to “GATGATTGTTCTCCCAGCTGATGAATTGTAGATATCGAGTAAACAAATTTTCCTAATCTTTCTGTTCAAGCGCCATCTAC”, the binding signal (RPM ratio (pull-down/input)) came out at 0.648.
As to “GATGATTGTTCTCCCAGCTGATGAATTTTACAGGTCGAGTAAACAAATTTTCCTAATCTTTCTGTTCAAGCGCCATCTAC”, the binding signal (RPM ratio (pull-down/input)) was 0.178.
Under “GATGATTGTTCTCCCAGCTGATGAATTACTGCCCTCGAGTAAACAAATTTTCCTAATCTTTCTGTTCAAGCGCCATCTAC” stands 0.441.
